Experimental data taken from the supplement of paper PMC10338343.
± gives the standard deviation. The list shows a part of the results, in another mix than the full data.

Test system: MIWI (PIWIL1) piRISC loaded with L1MC piRNA (30 nt)
Experiment: pre-steady-state target cleavage rate (min^-1); MIWI and MILI are mouse PIWI proteins and EfPiwi is from a freshwater sponge; tags in brackets are library labels; higher = faster piRNA-guided slicing of the target
Conditions: guide: L1MC piRNA 5'p-UAACUAAAUACUAUGCAAGCUGUAGGUCCU
Outline: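 At 33 °C in HEPES–potassium acetate buffer, a transcribed, DNA-blocked target RNA library […] was exposed for 0–8 or 0–960 min to 1 nM active affinity-purified piRISC carrying a single synthetic guide, with or without 500 nM GTSF1 partner protein. Uncleaved targets were sequenced and normalised to depth and to weakly complementary targets. With three trials pooled and k3 capped at 0.0001 min^-1, a burst-and-steady-state fit produced the pre-steady-state cleavage rate.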

[1] = auxiliary factor: 500 nM mouse GTSF1
[2] = auxiliary factor: none (no GTSF1)
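Note: 1 nM active piRISC with 0.1 nM target library at 33 °C single turnover.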

| Sequence | pre-steady-state target cleavage rate [1] | pre-steady-state target cleavage rate [2] |
| --- | --- | --- |
| UCCACCUACAGCUUGGAUAGUUUUUAGUUA | 0.277 ± 0.022 | 0.0183 ± 0.0036 |
| AGCACCUACAGCUAGCAUAGUAUUUAGUUA | 0.915 ± 0.08 | 0.0192 ± 0.0068 |
| UCCACCUACUCGUUGCAUAGUAUUUAGUUA | 0.892 ± 0.038 | 0.0197 ± 0.0042 |
| UCCUGGAACAGCUUGCAUAGUUAUUAGUAA | 0.0357 ± 0.011 | 0.00441 ± 0.0032 |
| UCCUCCUACAGGUUGCAUACUAUUUAGUUA | 0.273 ± 0.025 | 0.0155 ± 0.0031 |
| UCCUCCAACAGCUAGCAUAGUAUUUAGUUA | 0.684 ± 0.029 | 0.0178 ± 0.0032 |
| UGGACCUUCACCUUGCAUAGUAUUUAGUUA | 0.853 ± 0.033 | 0.0375 ± 0.0069 |
| AGGACCUAGUGCUUGCAUAGUAUUUAGUUA | 0.852 ± 0.07 | 0.0602 ± 0.011 |
| UGGACCUACAGCUAGCAUUGUAUUUAGUUA | 0.828 ± 0.042 | 0.0116 ± 0.0035 |
| UCCUGGAUCAGCUUGCAUAGUUAUUAGUAA | 0.0234 ± 0.01 | 0.0035 ± 0.0024 |
| UCCUGGAUCAGCAUGCAUAGUAUUUAGUAA | 0.658 ± 0.064 | 0.0057 ± 0.0025 |
| UGGACCUAGUCCUUGCAUAGUAUUUAGUUA | 0.522 ± 0.064 | 0.0127 ± 0.0036 |
| UGGACCAAGAGCUUGCAUAGUAUUUAGUUA | 1.08 ± 0.065 | 0.0427 ± 0.0075 |
| UCCUGGAACAGCUUGCUAAGUAUUUAGUAA | 0.0228 ± 0.0071 | 0.00385 ± 0.0023 |
| UCCACCUACAGCUUGCAUAGUAUUUAGCUA | 0.247 ± 0.067 | 0.00593 ± 0.0029 |
| UCCUGCUACAGCUUGCUAUGUAUUUAGUUA | 0.14 ± 0.018 | 0.00454 ± 0.0017 |
| AGGACCUACAGCUUGCAUAGUAUUUAGAAA | 0.597 ± 0.066 | 0.0225 ± 0.0082 |
| UCGACCUAGUCCUUGCAUAGUAUUUAGUUA | 0.869 ± 0.03 | 0.0219 ± 0.005 |
| UCCUCCUACAGCUUGCAUAGUAAUUACUUA | 0.206 ± 0.031 | 0.01 ± 0.0029 |
| UGCACCUACAGCUUGCAUUGUAUUUAGUUA | 0.808 ± 0.057 | 0.0286 ± 0.0068 |

| Sequence | pre-steady-state target cleavage rate [1] | pre-steady-state target cleavage rate [2] |
| --- | --- | --- |
| UCCUGCUACAGCUUGCAUAGUAUUCAGUUA | 0.601 ± 0.047 | 0.0188 ± 0.0045 |
| UGGACCUAGUGCUUGCAUAGUAUUUAGUAA | 0.285 ± 0.021 | 0.0169 ± 0.0038 |
| UCCUGGAUGAGCUUGCAUUGUAUUUAGAUA | 0.231 ± 0.037 | 0.0107 ± 0.0044 |
| UCCUGGUACAGCUUGGAUAGUAUAUAGUUA | 0.402 ± 0.073 | 0.0156 ± 0.0047 |
| UGCUGCUACAGCUUGCAUAGUAUUUAGUAA | 0.875 ± 0.084 | 0.0204 ± 0.0041 |
| UCCUCCUACAGCUUGCAUAGUAUUUUAGUUA | 1.04 ± 0.044 | 0.0227 ± 0.0055 |
| UCCUGGAUGAGCUUGCAUAGGAUUUAGUUA | 0.0129 ± 0.0034 | 0.00618 ± 0.003 |
| UCCUGGAUCAGCAUGCUUAGUAUUUAGUUA | 0.234 ± 0.02 | 0.00661 ± 0.0025 |
| UCCUGGAACAGCUUGCAUAGUAUAUACUUA | 0.103 ± 0.021 | 0.00868 ± 0.0035 |
| AGGACCUACAGCUUGCAUAGUAUCUAGUUA | 0.831 ± 0.071 | 0.0662 ± 0.013 |
| UCCUCCUACAGCUUGCUUAGUAUUUAGUAA | 0.561 ± 0.037 | 0.0111 ± 0.0028 |
| UCCUGGAUCUCCUUGCAUAGUAUUUAGUUA | 0.474 ± 0.044 | 0.0111 ± 0.0025 |
| UCCUGGUCAGCUUGCAUAGUAUUUAGUUA | 1.12 ± 0.03 | 0.0517 ± 0.01 |
| UCCACCUACUGCUUGCAUAGUAUUUUGUUA | 0.457 ± 0.026 | 0.0261 ± 0.0036 |
| UCCUGGAUCAGCUUGCCUAGUAUUUAGUUA | 0.899 ± 0.037 | 0.0222 ± 0.0046 |
| UCCUCCUACAGCUUGCAUUGUAUUUAGAUA | 0.312 ± 0.025 | 0.00758 ± 0.0015 |
| UCCUGGAACAGCUAGCAUAGUAUUUAGUUA | 0.836 ± 0.027 | 0.022 ± 0.0049 |
| UCCUCCUACAACUUGCAUAGUAUUUAGUUA | 1.05 ± 0.034 | 0.0589 ± 0.011 |
| UCCUGGUACAGCUUGCAUAGUUUUUAGUUA | 0.206 ± 0.031 | 0.0254 ± 0.0062 |
| UCGACCUACAGCUUGCAGAGUAUUUAGUUA | 1.05 ± 0.066 | 0.0315 ± 0.0073 |

| Sequence | pre-steady-state target cleavage rate [1] | pre-steady-state target cleavage rate [2] |
| --- | --- | --- |
| UCCUGGAUGAGCUUGCAUACUAUUUAGUUA | 0.219 ± 0.022 | 0.0242 ± 0.0057 |
| UCCUGGAACAGCUUGCAUAGGAUUUAGUUA | 0.0212 ± 0.0044 | 0.0118 ± 0.0032 |
| AGGAGCUACAGCUUGCAUUGUAUUUAGUUA | 0.9 ± 0.045 | 0.0371 ± 0.0084 |
| UCCACCUACAGCUUGCAGAGUAUUUAGUUA | 0.75 ± 0.039 | 0.023 ± 0.0052 |
| UCGACCUACAGCUUGCAUACAAUUUAGUUA | 0.0219 ± 0.0076 | 0.00334 ± 0.0025 |
| UCCUCCUAGAGCUUGCAUAGUAUAUAGUUA | 0.663 ± 0.08 | 0.0142 ± 0.0031 |
| UCCUGCUACACGUUGCAUAGUAUUUAGUUA | 1.13 ± 0.053 | 0.0124 ± 0.0035 |
| UCCUGGAUGUCCGUUGCAUAGUAUUUAGUUA | 0.013 ± 0.0052 | 0.00402 ± 0.003 |
| UCCAGGAACAGCUUGCAUAGUAUUUACAAA | 0.328 ± 0.041 | 0.00665 ± 0.0019 |
| UCCUGGAUGUGCUUGCAUAGUAUUUUGUAA | 0.0569 ± 0.016 | 0.00775 ± 0.0023 |
| UCCUGCUUCAGCUUGCAUUGUAUUUAGUUA | 0.991 ± 0.043 | 0.0287 ± 0.0069 |
| UCCUGGAACAGCUUGCAUAGUAUUUUCUAA | 0.17 ± 0.044 | 0.00329 ± 0.0025 |
| UCCACCUACAGCUUGCAAACUAUUUAGUUA | 0.295 ± 0.027 | 0.0061 ± 0.0024 |
| UCCACGUACAGCUUGCAUAGUAUAUAGUUA | 0.693 ± 0.036 | 0.0318 ± 0.0064 |
| UGGACCUACAGCUUGCAUAGUAUGUUAGUUA | 0.604 ± 0.04 | 0.0192 ± 0.004 |
| UCCUGGAUGACUUGCAUAGUAUUUAGUUA | 0.412 ± 0.03 | 0.0206 ± 0.0053 |
| UCCUGGAACAACUUGCAUAGUAUUUAGUUA | 0.989 ± 0.043 | 0.0463 ± 0.011 |
| UCCUGGUACUGCUUGCAUAGUAUUUAGAAA | 0.0634 ± 0.018 | 0.00412 ± 0.0024 |
| UCCUGGAACUGCUUGCAUAGUAUUUACUUA | 0.151 ± 0.025 | 0.0139 ± 0.0032 |
| UCCUGGAUCAGCUAGCUUAGUAUUUAGUUA | 0.372 ± 0.033 | 0.00674 ± 0.003 |
